Laboratory results reported in PubChem BioAssay AID485364 (National Center for Advancing Translational Sciences (NCATS), 2010).
In all, about 360,000 compounds went through this assay and about 11,000 (3.1%) were called active. The shares of active, inactive and inconclusive entries below differ from those in the screen. Calls follow the shape of the dose curve; as a rule, active = well fitted inhibition curve with a large enough effect; inconclusive = small, poorly fitted or top-dose-only effect; inactive = no such curve, though single readings can be large or run the other way. No potency is given beside an inconclusive call; the fits are too rough.

These compounds were tested against Schistosoma mansoni thioredoxin glutathione reductase (TGR) (UniProt Q962Y6) (assay: qHTS Assay for the Inhibitors of Schistosoma Mansoni Peroxiredoxins). Conditions: purified TGR, DTNB reduction, TNB absorbance 405 nm; activity change, negative = inhibition: at 114 µM (top of the series) unless noted.
Summary of the method: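 TGR 20 nM + NADPH 100 uM (dispensed conc.), cpd preinc 15 min RT; start with NADPH (500 uM addition) then DTNB (15 mM addition). Kinetic TNB absorbance, 405 nm filter. Four-parameter Hill fit across titration.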
% is scaled to controls: 0 for no effect and ±100 for the full control effect; potency is read from the fitted curve at half-maximal effect; tags tell the direction and shape of the fitted curve.
Also: nearly all actives have a fitted effect of over 60% in size.

Structure (SMILES) | Potency | activity change, negative = inhibition
COc1cccc(CN2CCN(Cc3nc(-c4cccs4)oc3C)CC2CCO)c1 (configuration not stated) | inconclusive [inhibitor, partial curve] | –
CSc1cccc(NC(=O)/C=C/c2ccco2)c1 | active: 1.12 µM | –
Cc1ccc(Nc2nc(-c3ccc(S(=O)(=O)N4CCCC4)cc3)cs2)cc1C | – | inactive: -4.18%
CCOC(=O)C#CC(CCc1ccccc1)OS(N)(=O)=O (configuration not stated) | active: 11.2 µM | –
O=C(NCCc1csc(-c2ccc(F)cc2)n1)C(=O)Nc1ccc(Cl)cc1 | – | inactive: -0.52%
CN1CCN(Cc2c(O)c(Cl)cc3c(-c4ccccc4)cc(=O)oc23)CC1 | inconclusive [inhibitor, partial curve] | –
COc1cc(/C=C2\SC(=O)N(CCN)C2=O)ccc1OS(=O)(=O)c1cc(C)ccc1C | – | inactive: 3.68%
Cc1cc(C=C2C(=O)N(C)C(=S)N(C)C2=O)c(C)n1-c1ccncc1 | inconclusive [inhibitor, partial curve] | –
CN(C(=O)COC(=O)CCC(=O)c1ccc(Cl)cc1)c1c(N)n(Cc2ccccc2)c(=O)[nH]c1=O | inconclusive [inhibitor, partial curve] | –
CC(C)n1c(=NC(=O)c2ccco2)c(C#N)cc2c(=O)n3ccccc3cc21 | active: 44.7 µM | –
CCc1nc(N2CCN(C(=O)c3ccco3)CC2)c2c3c(sc2n1)CCCC3 | active: 56.2 µM | –
Cn1cccc1/C=C1\SC(=Nc2cccc(O)c2)NC1=O | inconclusive [inhibitor, partial curve] | –
CCOc1ccc(C(=O)NC(=S)NCc2cccnc2)cc1 | inconclusive [inhibitor, partial curve, poor fit] | –
C=CCN1C(=O)CN=C1Nc1cc(C)cc(C)c1 | inconclusive [inhibitor, single point] | –
CCCCc1cc(=O)oc2cc(C)cc(OCC(=O)Nc3ccccn3)c12 | – | inactive: -0.574%
COc1ccc(N(CC(=O)NCCSCc2ccco2)S(=O)(=O)c2ccccc2)cc1Cl | active: 17.8 µM | –
Clc1ccccc1CN1CCN(/N=C/C=C/c2ccco2)CC1 | active: 15.8 µM | –
CCCCCC1NC(=O)NC1CCCCCC(=O)O (configuration not stated) | inconclusive [inhibitor, partial curve] | –
CCN(Cc1ccncc1)C(=O)CC1C(=O)NCCN1Cc1ccc(F)c(F)c1 (configuration not stated) | inconclusive [inhibitor, full curve] | –
COc1ccc(S(=O)(=O)N2CCC(C(=O)NN3CCCCC3)CC2)cc1OC | – | inactive: 1.29%
CCOC(=O)c1ccc(N2C(=O)C3CCCN3C2=S)cc1 (configuration not stated) | – | inactive: 8.94%
O=C(Oc1c(CN2CCOCC2)cc(Cl)c2cccnc12)c1cccs1 | inconclusive [inhibitor, full curve, poor fit] | –
O=C(O)CN1c2cccc3cccc(c23)S1(=O)=O | active: 35.5 µM | –
COc1cc(/C=C/C(=O)NCC(=O)N2CCC(N(C)CCN3CCOCC3)CC2)ccc1OC(C)C | inconclusive [inhibitor, partial curve] | –

Structure (SMILES) | Potency | activity change, negative = inhibition
O=[N+]([O-])c1ccc(NC(=S)NCc2ccc(F)cc2)cc1 | inconclusive [inhibitor, single point] | –
COc1ccc(NC(=O)CN(C)CC(=O)c2[nH]c(C)c(C(C)=O)c2C)cc1 | inconclusive [inhibitor, partial curve] | –
CCC1=C(c2ccc(C)cc2)S(=O)(=O)N=C1N1CCC(C(=O)N2CCCCC2)CC1 | – | inactive: -1.56%
Cc1cccc(-n2ncc3c(NNC(=O)c4ccco4)ncnc32)c1 | inconclusive [inhibitor, partial curve, poor fit] | –
Cc1nn(-c2ccccc2)c(Cl)c1/C=N/NC(=O)c1ccco1 | – | inactive: 7.27%
COc1cccc(CN2CCNCC2)c1 | – | inactive: -7.51%
COc1ccc(CN2C(=O)NC(=O)/C(=C/c3ccoc3)C2=O)cc1 | inconclusive [inhibitor, full curve, poor fit] | –
O=C(O/N=C1\C(=O)N(c2ccccc2)c2ccccc21)C1CC1 | inconclusive [inhibitor, full curve] | –
CN(CC(=O)Nc1ncn[nH]1)S(=O)(=O)c1ccc(Cl)cc1 | – | inactive: -1.77%
Oc1ccc2ccccc2c1CN1CC=C(c2ccccc2)CC1 | active: 22.4 µM | –
O=C(NCc1ccc(F)cc1)C(=O)NCC(c1cccs1)S(=O)(=O)c1cccs1 (configuration not stated) | active: 25.1 µM | –
CC(/C=N/NC(=O)c1cnccn1)=C\c1ccco1 | active: 28.2 µM | –
O=C(Nc1ccc(F)cc1)N1CCc2ccccc2C1 | – | inactive: 13.4%
N/C(=N/OC(=O)c1ccccc1Cl)c1ncc([N+](=O)[O-])s1 | inconclusive [inhibitor, full curve] | –
Cc1cc(NC(=O)c2cc(C(C)C)on2)no1 | – | inactive: 3.98%
O=C(NCc1ccco1)C1Cc2cc(Cl)ccc2O1 (configuration not stated) | inconclusive [inhibitor, partial curve] | –
CN(C(=O)CN1CCCCCC1)c1c(N)n(Cc2ccccc2)c(=O)[nH]c1=O | inconclusive [inhibitor, partial curve] | –
CC1CCCCC1NC(=O)COCc1cc(-c2cccs2)on1 (configuration not stated) | inconclusive [inhibitor, full curve] | –
Cc1cc(C)nc(N/N=C/C2=C(N3CCOCC3)C(=C/c3ccccc3)/CC2)n1 | inconclusive [inhibitor, partial curve] | –
CC1Cc2ccccc2N1S(=O)(=O)c1cccc(C(=O)NCC(c2ccco2)N2CCCC2)c1 (configuration not stated) | inconclusive [inhibitor, partial curve] | –
Cc1cc(C)cc(Nc2nc3ccc(C)cc3n3cnnc23)c1 | inconclusive [inhibitor, partial curve, poor fit] | –
COc1ccccc1CN1CCNC(=O)C1CC(=O)N(C)Cc1ccon1 (configuration not stated) | inconclusive [inhibitor, partial curve] | –
O=C(COc1cc(F)ccc1[N+](=O)[O-])N1N=C(c2cccs2)CC1c1ccco1 (configuration not stated) | inconclusive [inhibitor, partial curve, poor fit] | –
CCC(=O)Nc1cccc(C(=O)/C=C/c2cc(Br)ccc2OC)c1 | inconclusive [inhibitor, partial curve] | –

Structure (SMILES) | Potency | activity change, negative = inhibition
O=C(CCN1CCC(c2ccc(Cl)s2)=N1)c1ccc(Cl)s1 | inconclusive [inhibitor, full curve, poor fit] | –
CC1(C)CC(=O)C(C(C2=C(O)CC(C)(C)CC2=O)c2cccs2)C(=O)C1 (configuration not stated) | inconclusive [inhibitor, single point] | –
O=C(Nc1c(F)cc(F)cc1F)c1cccn(Cc2ccccc2)c1=O | inconclusive [inhibitor, single point] | –
O=S(=O)(NCCc1nnc2ccc(SCc3c(F)cccc3Cl)nn12)c1ccccc1 | – | inactive: -2.71%
COc1ccc(N2CCN(C(=O)CSc3nnc(NC(=O)C4CCC4)s3)CC2)cc1 | – | inactive: 0%
CCOC(=O)c1c(NC(=O)c2ccco2)n(C2CCCCC2)c2nc3ccccc3nc12 | inconclusive [inhibitor, partial curve] | –
COc1cc(OC)cc(-c2c(C#Cc3ccsc3)c3cc(-c4ccc(OC)nc4)ccc3n2C)c1 | active: 28.2 µM | –
CC(=O)OCC1=C(C(=O)O)N2C(=O)C(NC(=O)CC(C)c3ccccc3)C2SC1 (configuration not stated) | active: 28.2 µM | –
O=C(c1ccco1)N1CCN(C(=O)c2cc(-c3ccccn3)nc3ccc(Cl)cc23)CC1 | active: 7.94 µM | –
O=C(NC1CC1)c1ccc2c(Cl)c3c(nc2c1)CCCC3 | inconclusive [inhibitor, partial curve] | –
CC(=O)Nc1cc(N=Cc2ccc(O)cc2O)c(Cl)cc1Cl | inconclusive [inhibitor, partial curve] | –
CCOC(=O)/C=C/C(=O)N1CCN(C(=O)/C=C/C(=O)OCC)CC1 | inconclusive [inhibitor, partial curve] | –
N#Cc1ccc(N2CCCNCC2)nc1 | active: 28.2 µM | –
CCOC(=O)c1ccc(N2C(=O)CC(N(C)Cc3ccccc3)C2=O)cc1 (configuration not stated) | inconclusive [inhibitor, partial curve] | –
O=C(CSc1nnc(-c2ccco2)o1)NC(=O)C1COc2ccccc2O1 (configuration not stated) | inconclusive [inhibitor, partial curve] | –
COCCn1c(N)c(C(=S)NC(=O)c2cccs2)c(=O)[nH]c1=O | inconclusive [inhibitor, single point] | –
CC(C)c1ccc(NC(=O)CSc2n[nH]c(=O)n2-c2cccnc2)cc1 | inconclusive [inhibitor, partial curve] | –
Cc1ccc(C(=O)Oc2oc(-c3ccco3)nc2C=Nc2ccc(Cl)cc2)cc1 | active: 2.24 µM | –
O=C(Nc1cccc(S(=O)(=O)N2CCCCCC2)c1)c1ccc2ccccc2n1 | – | inactive: -1.93%
CC(=O)n1cc([C@H]2C=C(C(=O)N3CCN(Cc4ccccc4)CC3)O[C@@H](OCc3ccc(CO)cc3)C2)c2ccccc21 | active: 17.8 µM | –
CC1=C(c2ccc(C)c(C)c2)S(=O)(=O)N=C1N1CCC(C(=O)N2CCCCC2)CC1 | – | inactive: -11.7%
Cc1ccccc1OCCNc1ccc(C(F)(F)F)cc1[N+](=O)[O-] | – | inactive: -7.42%
COc1ccc(OC)c(/C=N/NC(=O)CNC(=O)c2ccc(S(=O)(=O)N3CCCC3)cc2)c1 | – | inactive: 1.29%
COc1ccc(C(=O)C2=NN(C(C)=O)CC2c2ccco2)cc1 (configuration not stated) | inconclusive [inhibitor, partial curve] | –
